± gives the standard deviation of the averaged measurements. In all, about 33,000 sequences were measured (“E-score (dimensionless, -0.5 to 0.5)”: median about -0.046, highest 2% from about 0.36 on). This is one part of the list.
system: T1, SpTbr T-box DNA-binding domain (GST fusion); assay: PBM E-score of 8-mer (E-score (dimensionless, -0.5 to 0.5)); Tbr is Tbrain of the sea star Patiria miniata (Pm) or the sea urchin Strongylocentrotus purpuratus (Sp); higher = stronger binding preference; most listed sequences are background and not binding sites; settings: the construct has about 5 more residues each side
T1 sequence: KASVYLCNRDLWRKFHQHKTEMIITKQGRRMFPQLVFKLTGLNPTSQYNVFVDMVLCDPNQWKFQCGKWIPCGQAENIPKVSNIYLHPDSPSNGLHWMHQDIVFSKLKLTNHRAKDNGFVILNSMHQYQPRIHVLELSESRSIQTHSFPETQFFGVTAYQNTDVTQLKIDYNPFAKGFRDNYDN
In short: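 Using the Universal PBM Analysis Suite, every ungapped 8-mer received an enrichment E-score averaged over duplicate arrays. Probe intensities came from double-stranded Universal Agilent oligonucleotide arrays incubated with 200 nM GST-fused Tbr T-box DNA-binding domain in PBS (pH 7.5). That protein was expressed in BL21 E. coli at 20 °C and purified by glutathione affinity chromatography.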

| Sequence | PBM E-score of 8-mer |
| --- | --- |
| ACGTGAGA | 0.3312 ± 0.0033 |
| AAAGGTCC | 0.0265 ± 0.0014 |
| AGAGAGTG | 0.178 ± 0.032 |
| ACCTTGGA | 0.188 ± 0.022 |
| CGACAGGC | 0.14 ± 0.01 |
| ACGGGTAG | -0.0489 ± 0.023 |
| ACCTCCAG | -0.0622 ± 0.097 |
| AAAAGCGT | 0.1914 ± 0.0012 |
| AAGCTATC | -0.0846 ± 0.015 |
| ATGTACGA | -0.0943 ± 0.036 |
| CAGGAACG | 0.116 ± 0.025 |
| GTAATTCA | -0.0412 ± 0.0055 |
| GCCATGAC | -0.122 ± 0.13 |
| CTGAGAGA | -0.0256 ± 0.016 |
| ATCAGTGC | -0.0668 ± 0.09 |
| GTAACCGA | -0.0382 ± 0.012 |
| ATGAAGTG | 0.281 ± 0.019 |
| CCACAGCA | -0.0444 ± 0.0096 |
| ACCGCAAT | -0.153 ± 0.061 |
| CATCTTGC | -0.0155 ± 0.0057 |
| AACACGCG | 0.215 ± 0.018 |
| AGCGTAAA | -0.0535 ± 0.045 |
| ATGCTAAA | -0.104 ± 0.086 |
| CAAAAATC | -0.0709 ± 0.038 |
| GGTGCGTA | 0.271 ± 0.077 |

| Sequence | PBM E-score of 8-mer |
| --- | --- |
| AAAATTTG | -0.151 ± 0.019 |
| GGAGCACA | -0.242 ± 0.082 |
| AGCGCTCC | -0.217 ± 0.042 |
| ATGGTGTA | 0.127 ± 0.015 |
| GCGGATCA | 0.101 ± 0.047 |
| TCTCACCA | 0.372 ± 0.011 |
| CATATGCC | -0.0737 ± 0.014 |
| ATTTGCCA | 0.067 ± 0.077 |
| AGATAACT | 0.0647 ± 0.053 |
| AAGGGCCC | -0.261 ± 0.055 |
| ATCACGCG | 0.357 ± 0.012 |
| AAAAGGTG | 0.41 ± 0.0094 |
| ATACTAGG | -0.153 ± 0.011 |
| CACAAGCA | 0.0133 ± 0.043 |
| GGGCAACA | 0.0214 ± 0.047 |
| GATGATAA | -0.0271 ± 0.067 |
| ATTCAAGG | -0.262 ± 0.017 |
| AACTGAGA | 0.0904 ± 0.049 |
| CCCAATCG | -0.0416 ± 0.088 |
| ACCAGCGT | 0.0263 ± 0.051 |
| AGCGTACA | -0.0903 ± 0.018 |
| ATCATGGG | -0.411 ± 0.03 |
| CCCCCGAG | -0.22 ± 0.0048 |
| AGGCCCGG | -0.341 ± 0.018 |
| AGAAGTTA | -0.0503 ± 0.027 |

| Sequence | PBM E-score of 8-mer |
| --- | --- |
| CTCAAATA | -0.326 ± 0.024 |
| GGTAAGAC | -0.224 ± 0.014 |
| ACAAGGCC | -0.0617 ± 0.1 |
| AGCTGGAT | 0.0494 ± 0.039 |
| CTTATACA | -0.104 ± 0.022 |
| CTGATTTA | -0.0945 ± 0.065 |
| ACCAATCC | 0.144 ± 0.12 |
| AAACTGGT | -0.0358 ± 0.091 |
| CCTTGAAC | -0.0925 ± 0.0075 |
| GACACTGA | 0.093 ± 0.019 |
| GAGTGTAC | -0.0659 ± 0.019 |
| GTAGCACA | 0.176 ± 0.068 |
| AGAGACAT | -0.131 ± 0.031 |
| AGTGACGA | 0.329 ± 0.029 |
| AGAGTTTA | -0.0197 ± 0.012 |
| CACGTCCG | 0.228 ± 0.0099 |
| GGGGTTAA | -0.112 ± 0.0089 |
| CGGACGGA | -0.227 ± 0.06 |
| AACCGGAT | -0.215 ± 0.0027 |
| ATGTTCCG | -0.184 ± 0.06 |
| GATCATCC | -0.0523 ± 0.075 |
| ACAATTAG | 0.164 ± 0.074 |
| CCCGCACC | 0.311 ± 0.036 |
| CTCGCGCC | 0.412 ± 0.031 |
| AGCGACTA | 0.0344 ± 0.016 |

| Sequence | PBM E-score of 8-mer |
| --- | --- |
| CAAGGCTA | -0.057 ± 0.0029 |
| ACATCCTA | -0.151 ± 0.01 |
| ACTCTTTA | 0.0329 ± 0.022 |
| AATGCGTA | -0.041 ± 0.044 |
| GTGCGTGA | 0.316 ± 0.057 |
| CATGCAAC | 0.155 ± 0.0056 |
| AAAAGACC | -0.231 ± 0.024 |
| CCAGCGAC | 0.0269 ± 0.0024 |
| CTAATAAC | 0.014 ± 0.033 |
| AGTATAGG | -0.333 ± 0.028 |
| CTTGCATC | -0.151 ± 0.039 |
| ATGCCGCC | -0.131 ± 0.024 |
| CTTGCGAA | 0.343 ± 0.019 |
| ACTGCGTC | -0.161 ± 0.039 |
| ATCGTCGG | 0.0554 ± 0.004 |
| ACTCGTTC | -0.0151 ± 0.017 |
| ACGGAAAT | -0.226 ± 0.042 |
| GAACGCAA | -0.0577 ± 0.0076 |
| AGGTTAGG | -0.111 ± 0.091 |
| AACAAAAA | -0.0702 ± 0.0031 |
| ACCCAGGT | 0.0937 ± 0.015 |
| TAGCACCA | 0.351 ± 0.0071 |
| GCGAGTCA | 0.203 ± 0.048 |
| CGCAACTC | 0.188 ± 0.039 |
| GTCGAATA | -0.1325 ± 0.00049 |

| Sequence | PBM E-score of 8-mer |
| --- | --- |
| CATAATGG | -0.0736 ± 0.0021 |
| AGACGGAG | -0.0855 ± 0.018 |
| ATACGCTA | -0.0905 ± 0.1 |
| GATATGAA | 0.131 ± 0.012 |
| CACAGCGA | -0.00739 ± 0.047 |
| CCGTTACC | 0.0662 ± 0.018 |
| ATCTTAGA | -0.172 ± 0.054 |
| ATTATGTA | -0.137 ± 0.016 |
| CACTAATG | 0.0999 ± 0.028 |
| ACCAGTCT | -0.181 ± 0.035 |
| GTGACGCA | 0.23 ± 0.024 |
| AAGTATAC | 0.0351 ± 0.056 |
| ACGTCTGG | -0.159 ± 0.07 |
| ACTCCCCC | -0.366 ± 0.059 |
| ACTTGAAC | -0.149 ± 0.042 |
| CGTCTCTC | -0.043 ± 0.068 |
| ACCGGTTG | -0.0626 ± 0.069 |
| ACTCTTCA | 0.0691 ± 0.005 |
| AACTCTTG | -0.0545 ± 0.035 |
| AGTCTGGG | -0.278 ± 0.029 |
| AACACGGC | 0.118 ± 0.0051 |
| AGCAATGC | -0.203 ± 0.084 |
| AGATGGGA | -0.0351 ± 0.082 |
| AGTCGATA | 0.136 ± 0.052 |
| AGACAGAT | -0.111 ± 0.05 |

| Sequence | PBM E-score of 8-mer |
| --- | --- |
| ATAAGGCC | -0.269 ± 0.14 |
| ATTCCTAA | -0.233 ± 0.037 |
| CTCTGCAA | -0.207 ± 0.013 |
| TGTCATAA | 0.288 ± 0.022 |
| GCGACTCC | 0.196 ± 0.027 |
| GATCAAAA | -0.0389 ± 0.074 |
| AAACGAAG | -0.156 ± 0.043 |
| CGACGTTC | -0.173 ± 0.011 |
| GTGCGCCA | 0.0213 ± 0.017 |
| GTAAAAAA | 0.0079 ± 0.032 |
| TGGCTAAA | -0.277 ± 0.036 |
| ACAGTGCG | 0.307 ± 0.029 |
| GAGCGATA | 0.115 ± 0.016 |
| ACTCCTCG | 0.178 ± 0.052 |
| GCGCACAA | -0.062 ± 0.038 |
| AAGAATAT | -0.234 ± 0.038 |
| CTAGTTGC | 0.0916 ± 0.087 |
| AGTCGTTA | 0.0721 ± 0.0013 |
| ACGGTGTA | 0.137 ± 0.026 |
| CGTCCCCC | -0.245 ± 0.065 |
| ATAATCGG | -0.0579 ± 0.056 |
| CCTTGTTA | 0.148 ± 0.072 |
| ATACCATC | -0.236 ± 0.017 |
| ATCTGATG | -0.00345 ± 0.016 |
| GCGGAAAC | 0.14 ± 0.041 |

| Sequence | PBM E-score of 8-mer |
| --- | --- |
| GTATCTAA | -0.18017 ± 0.00014 |
| AGGCAGTA | -0.169 ± 0.045 |
| TAACGAAA | -0.0251 ± 0.0043 |
| GAACATAC | -0.0451 ± 0.0094 |
| ACAAAAAC | 0.034 ± 0.024 |
| GGCAACAC | 0.3658 ± 0.00072 |
| TCCGTACA | -0.205 ± 0.035 |
| GACTACAA | -0.152 ± 0.053 |
| ACGAGCGA | 0.0819 ± 0.019 |
| ATCTCGAC | -0.00861 ± 0.033 |
| CGCAGATA | -0.0294 ± 0.04 |
| GAATGGCA | 0.0832 ± 0.081 |
| CAGGAGGA | -0.0587 ± 0.0051 |
| AAATTTAC | -0.00563 ± 0.15 |
| GAAAAACC | 0.139 ± 0.038 |
| CTCGGTGC | -0.0827 ± 0.037 |
| CGCACTGC | 0.104 ± 0.0094 |
| ACGCAGGG | -0.0816 ± 0.033 |
| AAGCGGGG | -0.276 ± 0.091 |
| CGTTTAAG | -0.11 ± 0.0043 |
| AGCTCAGC | -0.134 ± 0.069 |
| AACCATCG | 0.0525 ± 0.093 |

Reference: the supplement of paper PMC4166925
